PubChem BioAssay AID504339 (National Center for Advancing Translational Sciences (NCATS), 2011)
In all, about 390,000 compounds went through this assay and about 17,000 (4.4%) were called active. Inconclusive results, whose numbers are uncertain, are shown with a selection of clear calls. Calls follow the shape of the dose curve; as a rule, active = well fitted inhibition curve with a large enough effect; inconclusive = small, poorly fitted or top-dose-only effect; inactive = no such curve, though single readings can be large or run the other way. A potency beside an inconclusive call is a rough fit, not a confirmed value.

The molecules below were run against Lysine-specific demethylase 4A (Homo sapiens) (UniProt O75164) (assay: qHTS Assay for Inhibitors of JMJD2A-Tudor Domain). Settings: AlphaScreen JMJD2A-Tudor / H3K4me3 peptide binding; activity change, negative = inhibition: at 114 µM (top of the series).
Chain of UniProt O75164 (O75164 whole entry, looked up, the tested form may be a part): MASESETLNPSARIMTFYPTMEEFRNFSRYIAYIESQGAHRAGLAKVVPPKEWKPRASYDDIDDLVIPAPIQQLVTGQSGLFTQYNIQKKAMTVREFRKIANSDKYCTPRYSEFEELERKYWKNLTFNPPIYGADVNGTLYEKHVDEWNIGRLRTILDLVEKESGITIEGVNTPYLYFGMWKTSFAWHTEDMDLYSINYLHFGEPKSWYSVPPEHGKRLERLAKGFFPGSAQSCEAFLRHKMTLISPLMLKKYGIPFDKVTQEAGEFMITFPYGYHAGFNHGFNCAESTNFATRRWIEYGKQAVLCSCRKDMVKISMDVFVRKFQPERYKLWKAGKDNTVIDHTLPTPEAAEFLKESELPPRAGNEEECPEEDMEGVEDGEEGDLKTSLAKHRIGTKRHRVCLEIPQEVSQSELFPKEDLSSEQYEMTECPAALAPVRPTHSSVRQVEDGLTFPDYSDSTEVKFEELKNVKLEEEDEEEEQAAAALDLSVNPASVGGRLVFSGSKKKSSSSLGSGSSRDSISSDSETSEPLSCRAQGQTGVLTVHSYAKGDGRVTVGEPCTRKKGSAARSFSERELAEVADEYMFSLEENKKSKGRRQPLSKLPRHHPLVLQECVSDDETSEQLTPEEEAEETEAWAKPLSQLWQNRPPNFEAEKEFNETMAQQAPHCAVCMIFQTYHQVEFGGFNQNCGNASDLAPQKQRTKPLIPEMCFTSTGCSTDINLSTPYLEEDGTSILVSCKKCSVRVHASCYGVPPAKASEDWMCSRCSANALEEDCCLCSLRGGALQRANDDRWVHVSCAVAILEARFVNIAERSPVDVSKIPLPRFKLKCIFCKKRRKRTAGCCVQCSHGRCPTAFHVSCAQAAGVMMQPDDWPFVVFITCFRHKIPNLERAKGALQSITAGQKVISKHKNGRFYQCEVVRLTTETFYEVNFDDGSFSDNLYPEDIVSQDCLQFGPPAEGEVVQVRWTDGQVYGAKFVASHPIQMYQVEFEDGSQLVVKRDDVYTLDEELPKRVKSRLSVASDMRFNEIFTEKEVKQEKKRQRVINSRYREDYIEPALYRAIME
% is scaled to controls: 0 for no effect and ±100 for the full control effect; potency is read from the fitted curve at half-maximal effect; tags tell the direction and shape of the fitted curve.
Also: nearly all actives have a fitted effect of over 50% in size.

SMILES | Potency | activity change, negative = inhibition
O=C(COC(=O)c1cc([N+](=O)[O-])ccc1N1CCOCC1)Nc1cc(F)ccc1F | inconclusive: 56.2 µM [inhibitor, partial curve] | –
Cc1cc(C)cc(N=Cc2[nH]c3ccc(Br)c(Cl)c3c2O)c1 | inconclusive: 35.5 µM [inhibitor, single point] | –
Nc1ccc(C2(c3ccc(N)cc3)c3ccccc3C(=O)c3ccccc32)cc1 | inconclusive: 31.6 µM [inhibitor, single point] | –
CN(C)C/C=C/C(=O)Nc1cccc(-c2c[nH]c3ncnc(Oc4ccc(NC(=O)CC(=O)Nc5ccc(F)cc5)cc4F)c23)c1 | inconclusive: 56.2 µM [inhibitor, partial curve] | –
Cc1ccc(C(=O)Nc2ncccc2O)o1 | active: 3.55 µM | –
Cc1ccc(CCC(=O)Nc2ccc(CC(=O)O)cc2)o1 | inconclusive: 15.8 µM [inhibitor, full curve] | –
Cc1cc2ccccn2c1C(=O)c1ccc(C#N)cc1 | inactive | –
COc1ccc(CCNC(=O)C(=O)Nc2ccc3c(c2)OCO3)cc1OC | inactive | –
O=C(COC(=O)c1ccccc1O)NCc1ccco1 | inconclusive: 22.4 µM [inhibitor, full curve] | –
O=[N+]([O-])c1ccc(/C=C/c2ccc3cccc([N+](=O)[O-])c3n2)cc1 | inactive | –
CC(C)c1c(Cl)c(O)c(-c2ccccc2)c(=O)n1-c1ccc(F)cc1 | active: 20 µM | –
CC(/C=C/c1ccc(O)cc1)=NNc1ccccc1 | inconclusive: 50.1 µM [inhibitor, partial curve] | –
O=C(NCCCCCCNC(=O)OC1CCS(=O)(=O)C1)OC1CCS(=O)(=O)C1 (centres undefined) | inconclusive: 79.4 µM [inhibitor, partial curve] | –
CCOc1ccccc1C1CC(=O)NC2=C1C(=O)CC(C)(C)C2 (centres undefined) | – | inactive: -21.9% [at 11.4 µM]
O=C(CCc1ccccn1)N1CCCC(Nc2ccc(F)cc2)C1 (centres undefined) | inactive | –
CCC(=O)N1CCc2cc(Br)cc(S(=O)(=O)NCCc3ccc(OC)c(OC)c3)c21 | inactive | –
O=C(CSc1nc2ncc(Cl)cc2[nH]1)c1c[nH]c2ccccc12 | inactive | –
O=C(/C=C/c1ccccc1)NCCSCc1ccccc1 | inconclusive: 39.8 µM [inhibitor, single point] | –
CN1CCN(C2Cc3ccc(Cl)cc3Sc3ccc(F)cc32)CC1 (centres undefined) | inconclusive: 12.6 µM [inhibitor, full curve] | –
CCN1CCN(c2c(Cl)cccc2NC(=O)c2ccc([N+](=O)[O-])cc2)CC1 | inconclusive: 56.2 µM [inhibitor, partial curve] | –
Cc1ccccc1NC(=O)CC1SC(=NC2CCCCC2)NC1=O (centres undefined) | inactive | –
O=C(/C=C/Nc1ccc(F)cc1Br)c1ccccc1 | inactive | –

SMILES | Potency | activity change, negative = inhibition
O=C1c2[nH]nc(-c3ccccc3O)c2C(c2ccccc2F)N1Cc1ccco1 (centres undefined) | inconclusive: 28.2 µM [inhibitor, full curve, poor fit] | –
CCc1cc2c(=O)c(-c3cscn3)coc2c(CN(C)C)c1O | inconclusive: 39.8 µM [inhibitor, single point] | –
COc1cccc(/C=N/NC(=O)c2cc3c(OC)ccc(OC)c3[nH]2)c1O | inconclusive: 56.2 µM [inhibitor, partial curve] | –
CNc1nc(C)c([N+](=O)[O-])c(Nc2ccc(OC)cc2)n1 | inconclusive: 10 µM [inhibitor, full curve] | –
CN(C)c1ccc(Nc2nc(N)c([N+](=O)[O-])c(N3CCOCC3)n2)cc1 | inconclusive: 39.8 µM [inhibitor, single point] | –
Fc1ccccc1C1c2[nH]c3ccccc3c2CCN1CCCn1cccn1 (centres undefined) | inconclusive: 63.1 µM [inhibitor, partial curve, poor fit] | –
CCOc1ccc(CCNC(=O)c2ccc3c(c2)c(C)c(C)n3C)cc1 | inconclusive: 35.5 µM [inhibitor, full curve] | –
O=C1OC(/C(=C\Nc2cc(Cl)ccc2O)[N+](=O)[O-])c2ccccc21 (centres undefined) | inconclusive: 44.7 µM [inhibitor, partial curve] | –
COc1cccc(CNc2cccc3cccnc23)c1O | active: 44.7 µM | –
C#CCOCCOCCOCCNc1nc(N2CCN(C(=O)[C@H](CCCCN)n3cc([C@@H](N)CO)nn3)CC2)nc(N2CCN(C(=O)[C@H](CCCCN)n3cc([C@@H](N)CC(C)C)nn3)CC2)n1 | active: 56.2 µM | –
O=C1S/C(=C\c2cccs2)C(=O)N1c1ccc(O)cc1 | inactive | –
Cc1noc(/C=C/N(C)C)c1S(=O)(=O)N1CCCC(C(=O)NCc2ccc(Cl)cc2)C1 (centres undefined) | inconclusive: 17.8 µM [inhibitor, partial curve] | –
O=C(Nc1ccc(N2CCCCC2)cc1)c1ccc(F)cc1F | inactive | –
O=[N+]([O-])c1ccc2c3n([n+]([O-])c2c1)CCN=C3c1ccc(Cl)cc1 | inconclusive: 79.4 µM [inhibitor, partial curve] | –
CC1(C)Cc2cccc(OCC(=O)NCCOc3ccccc3)c2O1 | active: 20 µM | –
O=C(c1ccc(F)cc1)C1CCN(C(=O)Nc2ccc(F)cc2)CC1 | inconclusive: 89.1 µM [inhibitor, single point] | –
COc1ccc2[nH]c3c(=O)n(CCCCC(=O)NCCC(C)C)c(=S)[nH]c3c2c1 | inconclusive: 11.2 µM [inhibitor, full curve] | –
CCCOc1ccccc1N/C(=N/c1nc(C)cc(C)n1)NC(=O)Nc1ccc(Cl)cc1 | inactive | –
Cc1ccc(N/N=C(\C#N)C(=N)N2CCOCC2)cc1 | inconclusive: 100 µM [inhibitor, partial curve, poor fit] | –
O=C(Nc1ccccc1C(=O)N1CCN(Cc2ccccc2)CC1)c1ccccn1 | inconclusive: 63.1 µM [inhibitor, partial curve, poor fit] | –
CCN1/C(=C/c2ccc3cc(C)ccc3[n+]2CC)Sc2cc(C)c(C)cc21 | inconclusive: 11.2 µM [inhibitor, full curve, poor fit] | –
Cc1c(/C=N\NC(=O)C2COc3ccc(C(C)(C)C)cc3O2)c2ccccc2n1C (centres undefined) | inconclusive: 28.2 µM [inhibitor, partial curve] | –
